Reference: PubChem BioAssay AID504332 (National Center for Advancing Translational Sciences (NCATS), 2011)
Hit rate of the full screen: of about 350,000 compounds, about 31,000 (8.9%) were called active. This list was built around the results that the source calls inconclusive (neither active nor inactive); the mix of calls is not that of the screen. Calls follow the shape of the dose curve; as a rule, active = well fitted inhibition curve with a large enough effect; inconclusive = small, poorly fitted or top-dose-only effect; inactive = no such curve, though single readings can be large or run the other way. A potency beside an inconclusive call is a rough fit, not a confirmed value.

Biological target: Histone-lysine N-methyltransferase EHMT2 (Homo sapiens) (UniProt Q96KQ7)
Test: qHTS Assay for Inhibitors of Histone Lysine Methyltransferase G9a; also: nearly all actives have a fitted effect of over 75% in size
Conditions: G9a H3K9 monomethylation, AlphaScreen, 2 h; activity, negative = inhibition: at 59 µM (top of the series) unless noted
Procedure, shortened: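 G9a (20 nM) preincubated 15 min RT with compounds, then 500 nM biotinylated H3K9 peptide and 20 uM SAM added; 2 h RT reaction. Monomethyl-H3K9 product detected by AlphaScreen with anti-H3K9me1 antibody, streptavidin donor and anti-rabbit IgG acceptor beads.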
% is scaled to controls: 0 for no effect and ±100 for the full control effect; potency is read from the fitted curve at half-maximal effect; tags tell the direction and shape of the fitted curve.

Chain of UniProt Q96KQ7 (Q96KQ7 whole entry, looked up): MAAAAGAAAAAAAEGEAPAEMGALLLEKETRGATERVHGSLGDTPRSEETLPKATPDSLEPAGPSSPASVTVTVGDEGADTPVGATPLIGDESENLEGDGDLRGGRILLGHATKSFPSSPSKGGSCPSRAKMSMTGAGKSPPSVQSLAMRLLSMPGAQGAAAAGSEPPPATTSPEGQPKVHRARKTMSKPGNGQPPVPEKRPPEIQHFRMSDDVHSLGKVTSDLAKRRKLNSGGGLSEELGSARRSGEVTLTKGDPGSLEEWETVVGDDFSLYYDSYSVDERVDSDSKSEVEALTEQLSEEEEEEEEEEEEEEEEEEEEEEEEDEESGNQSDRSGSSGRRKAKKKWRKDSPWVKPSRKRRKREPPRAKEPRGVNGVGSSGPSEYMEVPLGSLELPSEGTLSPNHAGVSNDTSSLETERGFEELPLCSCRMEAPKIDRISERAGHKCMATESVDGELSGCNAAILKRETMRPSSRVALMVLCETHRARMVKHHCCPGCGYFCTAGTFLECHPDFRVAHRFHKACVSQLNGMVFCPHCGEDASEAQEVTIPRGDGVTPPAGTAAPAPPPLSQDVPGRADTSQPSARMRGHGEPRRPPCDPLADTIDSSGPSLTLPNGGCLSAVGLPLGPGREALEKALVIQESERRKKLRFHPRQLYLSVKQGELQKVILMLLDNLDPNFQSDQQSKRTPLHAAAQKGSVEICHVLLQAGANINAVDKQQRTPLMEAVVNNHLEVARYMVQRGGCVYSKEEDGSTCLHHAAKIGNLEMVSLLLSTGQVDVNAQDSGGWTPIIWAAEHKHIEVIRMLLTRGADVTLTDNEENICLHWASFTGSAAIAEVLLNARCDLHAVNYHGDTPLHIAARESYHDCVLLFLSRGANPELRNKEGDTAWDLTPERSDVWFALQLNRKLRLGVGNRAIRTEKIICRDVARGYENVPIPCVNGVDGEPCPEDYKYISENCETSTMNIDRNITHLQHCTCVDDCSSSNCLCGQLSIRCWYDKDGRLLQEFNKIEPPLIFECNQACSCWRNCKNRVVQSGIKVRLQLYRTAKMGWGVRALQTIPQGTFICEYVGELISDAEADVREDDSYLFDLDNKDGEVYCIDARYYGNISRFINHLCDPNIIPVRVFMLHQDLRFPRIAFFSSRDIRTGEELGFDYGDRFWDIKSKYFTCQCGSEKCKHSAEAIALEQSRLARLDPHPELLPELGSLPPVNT

Row | Structure (SMILES) | Potency | activity, negative = inhibition
1 | CCOc1cc(N2CCOCC2)c(OCC)cc1NC(=O)Cc1cccc2ccccc12 | active: 3.55 µM | –
2 | CCOc1ccc(Nc2cc(C)c3ccccc3n2)cc1 | inconclusive: 89.1 µM [inhibitor, single point] | –
3 | Cc1ccc(OCCn2cnc3c(N)ncnc32)cc1 | inconclusive: 50.1 µM [inhibitor, partial curve] | –
4 | COc1ccc(CNCC(O)COc2ccc(C(C)(C)c3ccccc3)cc2)cc1 (stereo unspecified) | – | inactive: -0.273% [at 2.33 µM]
5 | O=C1NC(=S)N/C1=C/c1cc([N+](=O)[O-])ccc1O | active: 11.2 µM | –
6 | COc1ccc(N2CCN(S(=O)(=O)c3ccc(OC)cc3)CC2)cc1 | active: 25.1 µM | –
7 | CCOC(=O)C1(Cc2cccc(OC)c2)CCN(Cc2cccc(OCC)c2O)CC1 | inconclusive: 70.8 µM [inhibitor, partial curve, poor fit] | –
8 | CCc1nnc(SCc2ccc(OC)cc2)c2cc3sc(C)cc3n12 | inactive | –
9 | O=C(CN1CCCN(S(=O)(=O)c2ccc(Br)cc2)CC1)Nc1ccc2c(c1)OCO2 | inconclusive: 31.6 µM [inhibitor, single point] | –
10 | COc1ccc(CN2CCN(C(=O)c3cccs3)CC2)c(OC)c1OC | inconclusive: 12.6 µM [inhibitor, partial curve, poor fit] | –
11 | CSCCC1NC2(C(=O)Nc3c(C)cc(Cl)cc32)[C@@H]2C(=O)N(C3CCCC3)C(=O)[C@H]12 (stereo partly specified) | inconclusive: 56.2 µM [inhibitor, single point] | –
12 | CCCc1ccc(OCCNC(=O)c2ccco2)cc1 | inactive | –
13 | COCc1cccc(C2=CC(=O)C[C@H](c3ccc(OC)cc3)C2)c1 | – | inactive: -3.29% [at 0.501 µM]
14 | CN(C)S(=O)(=O)c1cccc(C(=O)Nc2ccc(Cl)cn2)c1 | inconclusive: 31.6 µM [inhibitor, partial curve, poor fit] | –
15 | O=C(CSc1n[nH]c(-c2ccco2)n1)Nc1ccc(Br)cc1 | inactive | –
16 | CCOc1ccc2nc(-c3ccc(OC)c(OC)c3)cc(C(=O)O)c2c1 | inconclusive: 1.58 µM [inhibitor, single point] | –
17 | CCOCC(=O)Nc1cccc(-c2nc3cccnc3s2)c1C | inactive | –
18 | COCCCn1c(=N)c(C(=O)NCc2cccnc2)cc2c(=O)n3cc(C)ccc3nc21 | inactive | –
19 | Nc1ncnc2n[nH]c(Nc3ccc(F)cc3)c12 | inactive | –
20 | COc1cc(CCNC(=O)c2ccc3c(c2)c(C)c(C)n3Cc2cccc(C)c2)cc(OC)c1OC | inconclusive: 25.1 µM [inhibitor, partial curve, poor fit] | –
21 | O=C1CCCCCN1CP(=O)(O)CN1CCOCC1 | inconclusive: 79.4 µM [inhibitor, partial curve, poor fit] | –
